Here are results for 23 molecules from PubChem BioAssay AID1645887 (National Center for Advancing Translational Sciences (NCATS), 2021).

“And” between values parts separate entries of the source, which are not always exact repeats. Identical values can stand only once. Hit rate of the full screen: of about 16,000 compounds, about 40 (0.2%) were called active. Roughly 1% stayed inconclusive and do not appear here. Calls follow the shape of the dose curve; as a rule, active = well fitted activation curve with a large enough effect; inconclusive = small, poorly fitted or top-dose-only effect, or another doubt; inactive = no such curve, though single readings can be large or run the other way. Some of the results follow.
% is scaled to controls: 0 for no effect and ±100 for the full control effect.

UniProt Q8WZA2, sequence (Q8WZA2 whole entry, looked up): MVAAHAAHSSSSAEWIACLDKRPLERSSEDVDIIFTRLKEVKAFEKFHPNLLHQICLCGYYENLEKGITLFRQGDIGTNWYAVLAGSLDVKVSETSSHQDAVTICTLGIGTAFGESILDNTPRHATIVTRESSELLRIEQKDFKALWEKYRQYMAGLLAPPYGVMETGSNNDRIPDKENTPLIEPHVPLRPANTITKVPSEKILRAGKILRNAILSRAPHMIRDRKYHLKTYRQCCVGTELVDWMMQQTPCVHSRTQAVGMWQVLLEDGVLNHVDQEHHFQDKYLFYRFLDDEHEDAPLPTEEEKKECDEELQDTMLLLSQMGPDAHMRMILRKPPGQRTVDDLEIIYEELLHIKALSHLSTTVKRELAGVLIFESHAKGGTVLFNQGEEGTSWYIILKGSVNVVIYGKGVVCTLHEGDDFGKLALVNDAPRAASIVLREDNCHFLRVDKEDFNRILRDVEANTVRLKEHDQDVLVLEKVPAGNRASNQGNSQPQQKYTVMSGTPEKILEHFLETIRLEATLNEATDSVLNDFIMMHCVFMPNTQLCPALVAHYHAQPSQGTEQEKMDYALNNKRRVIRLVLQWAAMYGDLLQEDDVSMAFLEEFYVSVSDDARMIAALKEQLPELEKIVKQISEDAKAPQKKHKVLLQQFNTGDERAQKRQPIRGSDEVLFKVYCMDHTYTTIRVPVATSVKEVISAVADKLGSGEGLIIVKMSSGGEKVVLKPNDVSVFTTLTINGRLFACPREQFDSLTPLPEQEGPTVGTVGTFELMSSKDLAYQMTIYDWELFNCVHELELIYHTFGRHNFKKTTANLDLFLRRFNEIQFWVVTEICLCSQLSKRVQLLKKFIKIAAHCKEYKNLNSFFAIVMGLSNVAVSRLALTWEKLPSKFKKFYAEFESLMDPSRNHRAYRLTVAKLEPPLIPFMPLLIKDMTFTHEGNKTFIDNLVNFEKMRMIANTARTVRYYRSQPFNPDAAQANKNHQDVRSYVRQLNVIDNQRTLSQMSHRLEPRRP

The test has as its target Rap guanine nucleotide exchange factor 4 (Homo sapiens) (UniProt Q8WZA2). As to the kind of experiment: Validation qHTS for agonist of cAMP-regulated guanine nucleotide exchange factor 4 (EPAC2).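 Also: exchange makes BODIPY-GDP fluorescence drop when released from Rap1B; series mostly up to about 150 µM.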 To be noted: EPAC2 Rap1B BODIPY-GDP exchange, fluorescence; activation: active compounds read high. An outline of the steps:
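Fluorescent exchange assay: 100 nM EPAC2 with 250 nM RAP1B-BODIPY-GDP and 50 uM GDP; compound added, 5 min at room temperature, then read (ex 480/em 540 nm) every 5 min for 30 min. Normalized to 6.5 mM cAMP agonist control.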
On the technique in general: qHTS replaces the single test concentration by a dilution series.
Turning to `NS(=O)(=O)C#Cc1ccccc1`, the activation is inactive: -23.4%.

Consider `Cc1ccc(CNc2nc(C)c(-c3ccn(CCN4CCOCC4)n3)s2)o1`, for which the activation was inactive: -14.8%.

In the case of `CC(=O)C1=C(O)C=C2Oc3c(C(C)=O)c(O)c(C)c(O)c3C2(C)C1=O` (stereo not drawn), the activation was inactive: -12%.

Turning to `O=C(CCCCC(=O)Nc1c(I)cc(I)c(C(=O)O)c1I)Nc1c(I)cc(I)c(C(=O)O)c1I`, the activation was inactive: 15.4% and inactive: -6.68%.

Regarding `CC(C)Cc1nc2cc(NS(=O)(=O)N(C)C)cc(C(=O)N3CCOCC3)c2n1C`, the activation was inactive: -17.8%.

As for `COC(=O)N1CCC[C@@]2(CCN(c3ccncc3)C2)C1`, the activation was inactive: -10.5%.

`CN(C)c1ncc2ncc(=O)n(Cc3ccc(F)cc3)c2n1`: the activation is inactive: -6.61%.

As to `Cc1ccc(C(=O)[C@@H]2[C@H]3C4COC(O4)C(=O)[C@@H]3[C@H]3C=Cc4ccccc4N32)cc1` (stereo partly drawn), the activation is inactive: 8.83%.

On to `COc1ccc(OC)c(C(=O)N2CCOc3ccc(C(C)(O)CN(C)C)cc3C2)c1` (stereo not drawn), for which the activation is inactive: -24.2%.

Turning to `CCC1(C2CCN(Cc3ccc(OC)cc3)CC2)NC(=O)N(CC2COc3ccccc3O2)C1=O` (stereo not drawn), the activation is inactive: -13.5%.

As for `Cc1ccc2nc(N3CCCCCC3)c(CN(CC3CCCO3)C(=O)c3cncs3)cc2c1` (stereo not drawn), the activation is inactive: 3.89%.

As for `COc1ccc(CNc2ccnc(-c3cccnc3)n2)c(OC)c1`, the activation is inactive: 0.781%.

Turning to `CNC(=O)[C@H]1O[C@H](n2cnc3c(NCc4cccc(I)c4)ncnc32)[C@@H](O)[C@@H]1O`, the activation is inactive: 5.04%.

As for `O=C(Nc1cccc(F)c1)N1CC2(CCN(S(=O)(=O)c3ccccc3)CC2)C1`, the activation was inactive: -2.3%.

For `CCC1C(=O)NCCN1Cc1ccc2c(c1)CN(Cc1cc(OC)c3c(c1)OCO3)CCO2` (stereo not drawn), the activation was inactive: -0.295%.

Regarding `CCCCCCCCCCCCCCCC(=O)OCC(COC(=O)CCCCCCCCCCCCCCC)OC(=O)CCCCCCCCCCCCCCC`, the activation was inactive: -14.5%.

On to `C[C@@H](C(=O)O)c1ccc(-c2ccccc2)c(F)c1`, for which the activation was inactive: -12.2%.

As for `CC1=C2C(=COC(C)C2C)C(=O)C(C(=O)O)=C1O` (stereo not drawn), the activation is inactive: -7.76%.

For `CC(Cc1ccc(O)c(O)c1)C(C)Cc1ccc(O)c(O)c1` (stereo not drawn), the activation was inactive: 9.28%.

In the case of `COc1cccc(-c2nccc(NCCc3c[nH]c4ccc(OC)cc34)n2)c1`, the activation was inactive: 9.54%.

`COC(=O)[C@@H]1[C@H]2SC(C)(C)[C@H](C(=O)OC)N2C(=O)N1Cc1cc2ccccc2n1S(=O)(=O)c1ccccc1`: the activation was inactive: 1.41%.

Take `COC(=O)[C@@H]1CCCN1Cc1ccc2c(c1)CN(Cc1nccs1)CCO2`: the activation was inactive: -10.9%.

On to `O=C(O)Cc1cc(I)c(Oc2ccc(O)c(I)c2)c(I)c1`, for which the activation was inactive: -18% and inactive: -15.4%.
